According to publication PMC4336329 (PLoS ONE, 2015):
Screen size: about 310,000 compounds; about 14,000 (4.5%) showed an effect of 50% or more. Effects have a minus sign here. The list shows a part of the results.

What follows are compounds tested against human ether-à-go-go-related gene (hERG) potassium channel (human, UniProt Q12809) (assay: primary screen, population patch clamp on CHO cells stably expressing hERG).
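Further: peak tail current of the secondary pulse compared with the same well before compound.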

Sequence of human ether-à-go-go-related gene (hERG) potassium channel (Q12809 whole entry, looked up): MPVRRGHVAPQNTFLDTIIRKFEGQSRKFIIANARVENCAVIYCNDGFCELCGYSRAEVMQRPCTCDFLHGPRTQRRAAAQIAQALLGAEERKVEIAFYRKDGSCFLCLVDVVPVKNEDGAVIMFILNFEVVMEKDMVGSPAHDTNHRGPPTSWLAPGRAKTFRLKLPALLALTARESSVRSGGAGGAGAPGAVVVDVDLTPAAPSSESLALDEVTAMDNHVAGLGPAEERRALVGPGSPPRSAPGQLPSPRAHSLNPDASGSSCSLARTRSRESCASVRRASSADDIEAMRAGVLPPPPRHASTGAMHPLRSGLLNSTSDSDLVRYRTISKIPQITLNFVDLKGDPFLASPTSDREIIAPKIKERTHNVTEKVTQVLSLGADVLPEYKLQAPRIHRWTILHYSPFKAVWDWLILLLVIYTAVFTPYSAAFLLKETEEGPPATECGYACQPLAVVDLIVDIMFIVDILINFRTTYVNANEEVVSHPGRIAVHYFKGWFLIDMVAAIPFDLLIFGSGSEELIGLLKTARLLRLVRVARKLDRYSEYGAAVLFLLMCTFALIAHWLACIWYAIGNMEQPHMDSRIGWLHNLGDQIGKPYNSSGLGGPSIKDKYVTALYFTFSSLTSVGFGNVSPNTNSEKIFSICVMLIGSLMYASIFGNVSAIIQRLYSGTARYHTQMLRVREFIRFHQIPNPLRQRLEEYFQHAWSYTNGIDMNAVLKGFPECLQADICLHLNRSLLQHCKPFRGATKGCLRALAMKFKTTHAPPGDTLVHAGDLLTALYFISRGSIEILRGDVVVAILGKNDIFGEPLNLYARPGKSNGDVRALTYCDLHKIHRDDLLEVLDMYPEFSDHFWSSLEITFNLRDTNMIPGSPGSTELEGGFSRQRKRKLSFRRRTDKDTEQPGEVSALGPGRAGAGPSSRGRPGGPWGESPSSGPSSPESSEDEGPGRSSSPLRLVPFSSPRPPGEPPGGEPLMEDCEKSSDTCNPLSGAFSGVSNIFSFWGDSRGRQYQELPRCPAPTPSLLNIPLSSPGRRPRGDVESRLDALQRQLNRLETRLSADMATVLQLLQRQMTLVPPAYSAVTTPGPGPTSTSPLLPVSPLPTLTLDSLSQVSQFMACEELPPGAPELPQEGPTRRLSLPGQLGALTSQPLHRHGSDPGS

SMILES | hERG current change (%, negative = inhibition) at 10uM
Brc1ccc(OCc2cn3ccccc3n2)cc1 | -7.75%
CC1CCN(C(=O)CN(Cc2ccc(Cl)cc2)S(C)(=O)=O)CC1 | 3.1%
CC(C)CCn1c(Br)nc2c1c(=O)n(CC(N)=O)c(=O)n2C | 9.25%
CC(=O)N/C(=N/c1nc(C)cc(C)n1)Nc1cc(C)cc(C)c1 | -14.7%
CC(C)OC(=O)CSc1nc(Cc2cccs2)nc2ccccc12 | -34.5%
Cc1nn(CC(=O)OC(C)C(=O)Nc2ccccc2[N+](=O)[O-])c(C)c1[N+](=O)[O-] (stereo not shown) | -27.6%
Cc1cccc(NC(=S)N2CCC(c3nc4ccccc4s3)CC2)c1 | 3.18%
Cn1nnc2ccccc2c1=O | 12.5%
Cc1cc(C)nc(SCc2ccc(C(=O)N/N=C3\CCCC(=O)C3)cc2)n1 | 41.3%
COC(=O)c1ccccc1CCC(C)=O | 10%
Cc1sc2ncnc(SCC(=O)NC(C)C(C)C)c2c1C (stereo not shown) | 26.2%
O=C(COC(=O)CCOc1ccccc1)Nc1cc(S(=O)(=O)N2CCCCC2)ccc1Cl | -14.7%
O=C1C(=O)N(CC(=O)N2CCCC2)c2ccccc21 | 4.92%
Cc1cccc2c(SCC(N)=O)nc(-c3ccccc3)nc12 | 5.97%
Cc1ccc(S(=O)(=O)NCCC(=O)OCC(=O)Nc2ccccc2Cl)cc1 | -10.5%
COc1ccc(-c2c(-c3ccccc3OC)oc3ccccc23)cc1F | 9.84%
CCOC(=O)c1[nH]c(C)c(C(=O)NCCCOC(C)C)c1C | 8.4%
CCc1ccc(-c2cc(C(F)(F)F)n3nc(C(=O)Nc4c(C)nn(Cc5ccccc5C)c4C)cc3n2)s1 | -3.99%
O=C(CSc1nnc(C2CC2)n1Cc1ccccc1)Nc1cccnc1Cl | 5.07%
CCOc1ccc(CCNC(=O)CCc2nnc3ccc(N4CCCC4)nn23)cc1OCC | -2.76%
O=C(NCC1CCCO1)c1cc2cc(Cl)ccc2[nH]1 (stereo not shown) | 8.96%
CSc1ccc(CN(C)C(=O)C(c2ccccc2)c2ccccc2)cc1 | 3.09%
CCN(CCn1cccn1)C(=O)c1cc(COc2ccccc2SC)on1 | -16%

SMILES | hERG current change (%, negative = inhibition) at 10uM
Cc1oc(-c2ccccc2F)nc1CS(=O)(=O)CC(=O)NCCCN(C)C1CCCCC1 | -6.81%
O=C(CN1CCCCCC1)NCC1CCCO1.O=C(O)C(=O)O (stereo not shown) | 15.9%
Cc1nc(C)c(-c2csc(NCCc3ccccc3)n2)s1.O=C(O)C(=O)O | 1.88%
COc1ccc(OC)c(C(C)NC(=O)C(C)Cc2ccccc2)c1 (stereo not shown) | 15.3%
Cc1ccccc1NC(=O)C(=O)NCC1CCCN1S(=O)(=O)c1cccs1 (stereo not shown) | -10.7%
CCN(CC)C(=O)CSc1nnc(-c2ccc(O)cc2)n1CC1CCCO1 (stereo not shown) | 17.1%
O=C(CSc1nc2cccnc2n1Cc1ccccc1)NC1CCCCC1 | -43%
Cc1cc(C)cc(S(=O)(=O)c2cnc3ccccc3n2)c1 | 15.1%
Brc1ccc2[nH]c3nc(SCCN4CCOCC4)nnc3c2c1 | 14.1%
CCC(=O)Nc1ccc2nc3c(=O)[nH]c(=S)[nH]c3nc2c1 | 39.3%
C=CCn1c(SCC(=O)NC2CCCCC2)nc2ccccc2c1=O | 19%
CCOc1cc2c(cc1OCC)-n1cccc1C(c1cccc(OCC)c1O)NC2.Cl (stereo not shown) | -48.1%
CN(c1ccccc1)S(=O)(=O)c1ccc(C(=O)Nc2nnc(C3CC3)o2)cc1 | -3.8%
Cc1cccc(NC(=O)CSc2nc(=O)n(CCN3CCOCC3)c3c2CCCC3)c1C | -23.6%
COc1ccccc1N1CCN(C(=O)CSc2nnc3c4ccccc4n(CC(=O)O)c3n2)CC1 | 9.75%
Cc1ccc(C(=O)N2c3ccc(F)cc3CCC2C)o1 (stereo not shown) | 0.746%
COC(=O)c1cc(NC(=O)CCc2c(C)nc3ncnn3c2C)cc(C(=O)OC)c1 | -36.1%
CCN(CC(=O)Nc1c(F)cccc1F)C(=O)c1cc2c(cc1Cl)N1CCCCCC1=NS2(=O)=O | 14.5%
O=c1c2ccccc2nc2n1CC/C2=C\N1CCN(c2ccc([N+](=O)[O-])cc2)CC1 | -78.1%
CC(C)CN(CC(C)C)C(=O)CS(=O)(=O)Cc1ccccc1 | 3.13%
COc1ccc(Cl)cc1-c1nc(SCC(=O)N(C)CCC#N)n[nH]1 | 11.9%
O=C(CSc1nc(-c2ccccc2)cc(=O)[nH]1)Nc1ccc(F)c(F)c1 | 26.5%
Cc1cc(-c2ccc(Br)cc2)n[nH]1 | -1.57%

SMILES | hERG current change (%, negative = inhibition) at 10uM
CC(C)Cn1cnc2c1c(=O)[nH]c(=O)n2Cc1ccccc1 | 3.15%
COc1ccc(NC(=S)Nn2cnnc2)c(OC)c1 | 12.9%
COCCn1c(C)cc(/C=C2/NC(=O)N(Cc3ccc(C)cc3)C2=O)c1C | 12.3%
CC(=O)c1c(C)[nH]c(C(=O)C(C)Sc2nnc(NC3CC3)s2)c1C (stereo not shown) | -22.9%
O=C1OC(N2CCN(C(=O)c3ccco3)CC2)c2ccccc21 (stereo not shown) | 5.84%
CCCSc1nc(C)cc(C)c1S(C)(=O)=O | 8.96%
COC(=O)C1=C(C)NC(C)=C(C(=O)OC)C1c1ccc(-c2cccc([N+](=O)[O-])c2)o1 | -0.354%
CCn1c(CCc2ccccc2)nnc1SCC(N)=O | 15.7%
O=C(CCc1nnc(Cc2ccc3c(c2)OCO3)o1)N(CC1CCC1)CC1CCCO1 (stereo not shown) | 6.04%
CC(=O)c1cccc(NC(=O)CN2C(=O)COc3ccc(S(=O)(=O)N4CCOCC4)cc32)c1 | 15.6%
CCC(CC)NC(=O)c1ccc(Cl)cc1 | 23.2%
O=C(O/N=C1\CCCc2ccccc21)C1CC1 | 14.4%
Cc1onc(-c2c(Cl)cccc2Cl)c1C(=O)c1c[nH]c(C(=O)NCC2CCCO2)c1 (stereo not shown) | 22.9%
CCOc1ccc(N=Cc2c(C)[nH]n(-c3nc4ccccc4[nH]3)c2=O)cc1 | -7.07%
C=CC(C)(C)c1[nH]cnc1/C=C1\NC(=O)C(C(C)C)NC1=O (stereo not shown) | 3.54%
COc1ccc(NC(=O)C2C(c3ccccc3)C2(Cl)Cl)c(OC)c1 (stereo not shown) | 10.3%
COc1ccc(OC)c(NC(=O)C2CC(C)=C(C)CC2C(=O)O)c1 (stereo not shown) | -2.07%
O=C(CCC1CCCN(Cc2ccc3c(c2)OCCO3)C1)NCc1ccccc1F (stereo not shown) | -24.2%
COc1ccc(OCCC(=O)NC2CCCCC2)cc1 | 35%
Cc1cc(NC(=O)CSc2nc3sc(C)c(C)c3c(=O)n2C2CCCC2)no1 | 12.4%
CC(=O)c1c(N)nc2n(c1=O)CCCCC2 | 12.8%
C=CCNc1nc(N2CCCC2)nc2ccccc12 | -78.3%
O=C(O)c1ccccc1Sc1ncnc2sc3c(c12)CCC3 | 9.12%

SMILES | hERG current change (%, negative = inhibition) at 10uM
CN(CC(=O)Nc1ccccc1Br)C(=O)CNC(=O)c1ccc(Oc2ccccc2)cc1 | -17.8%
COc1ccccc1/C=C/C=N/NC(=O)CN1CCN(S(=O)(=O)c2ccc(C)cc2)CC1 | -50.2%
O=S1(=O)CC/C(=N\Nc2ccccc2)c2ccsc21 | 23.2%
COC(=O)C(CC(C)C)NC(=O)c1ccc([N+](=O)[O-])c(C)c1 (stereo not shown) | 4.36%
CCCNC(=O)C(Cc1cccc(OC)c1)NC(=O)c1ccc(C#N)cc1 (stereo not shown) | -7.8%
Cc1csc(NC(=O)CSc2nnc(-c3ccccc3)o2)n1 | 1.77%
O=C(O)c1nccnc1C(=O)Nc1ccccc1N1CCOCC1 | 0.094%
O=C(NCCc1ccc(C(F)(F)F)cc1)C1CC(=O)N(c2ccc3c(c2)OCCO3)C1 (stereo not shown) | -2.97%
NC(=O)C(c1ccccc1)C1CCCC1 (stereo not shown) | 20.4%
Cc1c(C(=O)N2CCC(N3CCSCC3)CC2)oc2c(F)cccc12 | -34.9%
CCO/N=C(\C)c1c(O)cc(C(C)C)n(-c2ccccc2)c1=O | 3.39%
COc1ccc(CN2CCNC(=O)C2CC(=O)N2CCCCO2)cc1OC (stereo not shown) | 20.4%
COc1ccc(OC)c(NC(=S)N2CCc3ccccc3C2)c1 | -3.36%
O=C(NN1C(=O)/C(=C/c2ccc(O)c(O)c2)SC1=S)c1ccccc1 | -9.26%
Nc1nc(NCc2ccco2)nc(N2CCCCCC2)c1[N+](=O)[O-] | -23.8%
Cc1cccc(N2CCN(S(=O)(=O)c3ccc4c(c3)CCCN4C(=O)C3CCC3)CC2)c1C | -12%
CN(CC(=O)NC1CC1)S(=O)(=O)c1ccc(F)cc1 | 16.6%
CCN(Cc1ccccc1)C(=O)c1cccc(OC2CCN(C(=O)C3CC3)CC2)c1 | -46%
CN(C)S(=O)(=O)c1ccc(C(=O)Nc2nnc(SCc3cccc(F)c3)s2)cc1 | 7.71%
CC1(C)Cc2ccccc2C2CC(O)C(=O)N21 (stereo not shown) | 9.13%
COc1ccc(CCNC(=O)CSc2nc(C)cs2)cc1 | -1.06%
Cn1nc(-c2ccccc2)c(CO)c1Oc1cccc(C(F)(F)F)c1 | 12.3%
